Results as given in a collection of fitness landscapes (doi:10.1016/j.celrep.2020.107928).
The full ranking holds about 81,000 sequences; the median of “one-hybrid fitness for binding NBS DNA” is about -0.1, and the highest 2% start at about 0.36. The list shows a part of the results.

B1: Caulobacter ParB omega fusion; a variant is named by its letters at X, in order, B8GW30 (parent)
chain: MESVVVGEPGMSEGRRGLGRGLSALLGEVDAAPAQAPGEQLGGSREAPIEILQRNPDQPRRTFREEDLEDLSNSIREKGVLQPILVRPSPDTAGEYQIVAGERAWRAAQRAGLKTVPIMVRELDDLAVLEIGIIENVQRADLNVLEEALSYKVLMEKFERTQENIAQTIGKSXSHVANXMRLLXLPDEVQSYLVSGELTAXHARAIAAAADPVALAKQIIEGGLSVRETEALARKAPNLSAGKSKGGRPPRVKDTDTQALESDLSSVLGLDVSIDHRGSTGTLTITYATLEQLDDLCNRLTRGI

Variants of: B1
Assay: one-hybrid fitness for binding NBS DNA (the Noc-binding site; scaled: cognate 1, non-cognate 0); higher = stronger binding
Conditions: with NBS DNA site
Summary of the method: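 Pre- and post-selection plasmids were Illumina-sequenced, three replicate libraries were pooled, and any variant with under 10 reads was removed. The libraries were Caulobacter ParB with four specificity codons randomised, selected in E. coli USO through a HIS3 reporter whose site is 19 bp from the promoter. Cells grew 48 hours at 37°C on M9 without histidine, with 0.1 mM IPTG and 5 mM 3-AT. Fitness is the log change in variant-to-wild-type read ratio, rescaled against cognate and non-cognate.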

Variant	one-hybrid fitness for binding NBS DNA
FTKI	≤ 0.2
PKPC	≤ 0.2
QGQY	≤ 0.2
QTYP	≤ 0.2
RHSA	≤ 0.2
TRER	≤ 0.2
TRDW	≤ 0.2
TGVT	≤ 0.2
ADWR	≤ 0.2
DIAR	≤ 0.2
AYEV	≤ 0.2
DQDG	≤ 0.2
IVDK	≤ 0.2
LYGS	≤ 0.2
NQKT	≤ 0.2
YQER	≤ 0.2
EYSD	≤ 0.2
RQIT	0.221
LSNL	≤ 0.2
QSHV	0.201
QESK	≤ 0.2
WVIY	≤ 0.2
NYCL	≤ 0.2
GHKC	≤ 0.2
QHPV	≤ 0.2

Variant	one-hybrid fitness for binding NBS DNA
KLET	≤ 0.2
TTTD	≤ 0.2
ELVS	≤ 0.2
VMTS	≤ 0.2
FILC	≤ 0.2
TYES	≤ 0.2
QEAA	≤ 0.2
MSKC	≤ 0.2
AMWS	≤ 0.2
TLQV	≤ 0.2
DRWR	≤ 0.2
HAVA	≤ 0.2
ELAT	≤ 0.2
IARC	≤ 0.2
QEIC	≤ 0.2
WTTG	≤ 0.2
RRIK	0.216
DARG	≤ 0.2
AMLS	≤ 0.2
QNYT	≤ 0.2
DPYT	≤ 0.2
KQPR	≤ 0.2
CKKT	≤ 0.2
AKPF	≤ 0.2
RYVW	≤ 0.2

Variant	one-hybrid fitness for binding NBS DNA
KALL	≤ 0.2
ADNS	≤ 0.2
IISL	≤ 0.2
SGRA	≤ 0.2
IDEP	≤ 0.2
HGTG	≤ 0.2
PIAW	≤ 0.2
LFVD	≤ 0.2
MGRC	≤ 0.2
CWLC	≤ 0.2
WVEC	≤ 0.2
DCRM	≤ 0.2
ESCG	≤ 0.2
MAER	≤ 0.2
CHLC	≤ 0.2
TLGP	≤ 0.2
KMPE	≤ 0.2
FANC	≤ 0.2
ATSM	≤ 0.2
RWGH	≤ 0.2
LVKC	≤ 0.2
VMPN	≤ 0.2
LLSC	≤ 0.2
VEIW	≤ 0.2
TQLA	≤ 0.2

Variant	one-hybrid fitness for binding NBS DNA
AKLY	≤ 0.2
QFSW	≤ 0.2
SRMN	≤ 0.2
CGNG	≤ 0.2
GLLL	≤ 0.2
IRQT	0.235
QALD	≤ 0.2
AYFR	≤ 0.2
QMQG	≤ 0.2
EQLW	≤ 0.2
PSSS	≤ 0.2
QFKH	≤ 0.2
IKIC	≤ 0.2
ETLN	≤ 0.2
SPGQ	≤ 0.2
RGQC	≤ 0.2
QTDQ	≤ 0.2
QTHA	0.441
IQGF	≤ 0.2
IRQS	≤ 0.2
AGPS	≤ 0.2
RCID	≤ 0.2
RSPN	≤ 0.2
